Source: PubChem BioAssay AID2202238 (Ras Initiative Chemistry Research Team, Frederick National …, 2025)
The list shows a part of the results. The main result of the screen is listed elsewhere. These columns were measured beside it and carry no call.

Target: GTPase KRas (Homo sapiens) (UniProt P01116)
Test: Cysteine mutants labelled by reactive fragments (mass read-out) (AID 2202238)
Set-up: protein at 5 µM with 500 µM competing thiol for 1.5 h
Settings: KRAS G12D cysteine mutants, disulfide tethering, MALDI-TOF labeling, stronger effect = higher value, fragment at 500 µM
[1] = measured here: G60C mutant labeling
[2] = measured here: G75C mutant labeling
[3] = measured here: H94C mutant labeling
[4] = measured here: I36C mutant labeling
[5] = measured here: L120C mutant labeling
[6] = measured here: M67C mutant labeling
[7] = measured here: M72C mutant labeling
[8] = measured here: N26C mutant labeling
[9] = measured here: N86C mutant labeling
[10] = measured here: P121C mutant labeling
[11] = measured here: S122C mutant labeling
[12] = measured here: S136C mutant labeling

Chain of UniProt P01116 (P01116 whole entry, looked up, the tested form may be a part): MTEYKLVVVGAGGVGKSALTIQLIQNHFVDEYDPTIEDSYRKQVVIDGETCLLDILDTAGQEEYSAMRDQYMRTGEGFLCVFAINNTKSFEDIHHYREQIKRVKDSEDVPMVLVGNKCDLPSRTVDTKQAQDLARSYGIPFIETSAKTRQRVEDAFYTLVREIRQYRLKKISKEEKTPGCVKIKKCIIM

| SMILES | percent labeling [1] | percent labeling [2] | percent labeling [3] | percent labeling [4] | percent labeling [5] | percent labeling [6] | percent labeling [7] | percent labeling [8] | percent labeling [9] | percent labeling [10] | percent labeling [11] | percent labeling [12] |
| --- | --- | --- | --- | --- | --- | --- | --- | --- | --- | --- | --- | --- |
| Cc1nnc(CN(C)CC(=O)NCCS)n1C | 8.2% | 0% | 13.3% | 10.7% | 10.9% | 16.7% | 0% | 16.1% | 7.2% | 14.4% | 16.9% | 21.4% |
| O=C(CCS)NCc1nc(-c2nn[nH]n2)cs1 | – | 14.6% | 25.5% | 28.9% | 34.6% | 34% | 15.7% | – | 32.9% | 35.4% | 37.7% | 40.9% |
| O=C(CCS)Nc1cnc2c(c1)COCC2 | – | 14.5% | 23.8% | 40.5% | 24.7% | 34.4% | 36.2% | – | 27.1% | 28.6% | 26.9% | 52.4% |
| CC(C)Cn1ccc2c(C(=O)NCCS)cccc21 | 18.7% | 11.1% | 14.3% | 8.9% | 16.7% | 12.5% | 47.8% | 32.6% | 10.3% | 12.2% | 11% | 17.9% |
| Cc1c(-c2ccc(Cl)cc2)n[nH]c1C(=O)NCCS | 14.8% | 12.7% | 11% | 8.4% | 15.2% | 8.6% | 40.3% | 27.9% | 11.3% | 12.2% | 8% | 11.5% |
| O=C(CCS)NCCn1cc(Br)ccc1=O | – | 10.4% | 32.2% | 37.1% | 27.9% | 40.6% | 20.7% | – | 15.2% | 35.7% | 38.4% | 46.4% |
| CCOC(=O)C(NC(=O)CCS)c1c(C)nn(Cc2ccccc2)c1C (configuration not stated) | – | 9.1% | 25.2% | 29.4% | 19.8% | 31.8% | 26.4% | – | 17.1% | 30.2% | 23.7% | 53.7% |
| O=C(CCS)NCC(=O)Nc1nccs1 | – | 12.2% | 26.6% | 38.6% | 34.3% | 30.6% | 23.5% | – | 36.2% | 35.7% | 30.4% | 45.6% |
| CC(O)(Cn1ccc2sccc2c1=O)C(=O)NCCS (configuration not stated) | 41.6% | 20.7% | 36.3% | 33.8% | 32.6% | 40.8% | 28.1% | 41.5% | 25.8% | 37.1% | 33% | 48.9% |
| CC1(C)CCC(C(=O)NCCS)C(c2ccccc2)C1 (configuration not stated) | 37.3% | 9.8% | 14.9% | 8.9% | 21.4% | 20.1% | 36.2% | 23% | 18.9% | 14.8% | 12.9% | 25% |
| O=C(NCCS)[C@@H]1OCCO[C@@H]1c1ccccc1 | 40% | 16.2% | 35% | 21.1% | 43.8% | 31.2% | 30.8% | 34.8% | 23.6% | 32.8% | 33.2% | 52.5% |
| Cc1ccc2ncc(NC(=O)CCS)cc2c1 | – | 13.4% | 20.4% | 25.3% | 11.2% | 11.8% | 65.5% | – | 9.5% | 16.8% | 16.7% | 34.9% |
| O=C(CCS)NCC1(c2cccc(C(F)(F)F)c2)CCC1 | – | 12.1% | 30% | 22.2% | 16.7% | 21.9% | 36.2% | – | 10.1% | 19.4% | 16.3% | 36.5% |
